From the supplement of paper PMC11417369
± gives the standard deviation of the averaged measurements. Some of the results follow.

tested on: PfAP2-LT AP2 domain (GST-tagged); experiment: gcPBM binding intensity (ln(normalized median fluorescence intensity)); higher = stronger DNA binding
How it was run: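 An Agilent 4 × 180k array of primer-extended double-stranded 36-bp intergenic genomic probes, with negative controls, was incubated for 1 h with GST-tagged P. falciparum DNA-binding domains expressed in E. coli. Alexa488 anti-GST antibody detected bound protein, scanned at 488 nm. Binding intensity is the highest Masliner-normalised natural-log median intensity across replicate spots of either probe orientation.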

Q: How did the “gcPBM binding intensity (ln)” value turn out when “CACGCACGCAGACACACACACACACGCACATATATA [CACACA_site6303]” was run?
A: Its value is 10.2 ± 0.38.

Q: For ACAACAATTCACTTGATGCACTAACCAAAAAAATAA, which “gcPBM binding intensity (ln)” value is on record?
A: The value was 8.78 ± 0.35.

Q: “CTAAATAACTTAAGGTGTACGTTTCCAATAAAAAAA [XGTACX_site1742]” was tested. Which “gcPBM binding intensity (ln)” value did it give?
A: The value was 8.56 ± 0.49.

Q: Which “gcPBM binding intensity (ln)” value does the source give for “ACATATAAAATGATGCGTACATATTTGATCATATAC [XGTACX_site153]” here?
A: The value was 9.03 ± 0.3.

Q: Which “gcPBM binding intensity (ln)” value does the source give for “GTATATTAATAAACATGTACACAATTTATTTATATT [XGTACX_site1012]” here?
A: The value was 8.87 ± 0.44.

Q: With “TTTTTTTTTTGAAGTGCATGTTACGATGAAAAAAAA [TGCATGCA_site64]” as the sequence, how does the “gcPBM binding intensity (ln)” value read?
A: Its value is 8.21 ± 0.3.

Q: “TTTTTTTTTAAATGTTGTACATTATATTTGTGTATA [XGTACX_site8354]” was tested. Which “gcPBM binding intensity (ln)” value did it give?
A: Its value is 8.7 ± 0.46.

Q: With “CGTATGTGCGGACATGCATGCAATATACAAGAAAAA [TGCATGCA_site145]” as the sequence, how does the “gcPBM binding intensity (ln)” value read?
A: Its value is 9.03 ± 0.38.

Q: For “TGTAGCCTGGAGAAGAGTACATAGTATCTGGTAGCT [XGTACX_site4943]”, which “gcPBM binding intensity (ln)” value is on record?
A: The value was 8.79 ± 0.49.

Q: With “CCATATAAAATATAAAAACACACGTATATATACATA [CACACA_site1511]” as the sequence, how does the “gcPBM binding intensity (ln)” value read?
A: The value was 8.93 ± 0.34.

Q: Which “gcPBM binding intensity (ln)” value does the source give for “TGTACATATATATAGATATATATAGATATATATATA [CACACA_negctrl_site1678]” here?
A: The value was 8.91 ± 0.29.

Q: For “ATTCAATCTTTTAATACACACAATTTATTTCAAAAC [CACACA_site835]”, which “gcPBM binding intensity (ln)” value is on record?
A: Its value is 8.65 ± 0.44.

Q: “ACAAAATGTAGAAAATGTACAAAATTAACAAAAGAA [XGTACX_site5019]” was tested. Which “gcPBM binding intensity (ln)” value did it give?
A: The value was 9.11 ± 0.63.

Q: “TATCCTAACTTTAGATGTACACAAATAAAAAAAAAA [XGTACX_site4491]” was tested. Which “gcPBM binding intensity (ln)” value did it give?
A: The value was 8.45 ± 0.47.

Q: “AAAATACAAACAAGTGGTACTGTTTATAAATGGTTG [XGTACX_site1503]” was tested. Which “gcPBM binding intensity (ln)” value did it give?
A: Its value is 8.81 ± 0.49.

Q: Which “gcPBM binding intensity (ln)” value does the source give for “TGTCTTGTAAATTATTGTACTATTTAAAGTATACAA [XGTACX_site7864]” here?
A: The value was 8.62 ± 0.26.

Q: For “TTGTATATATTTATATGTACATATATTACTTTTGCT [XGTACX_site2449]”, which “gcPBM binding intensity (ln)” value is on record?
A: Its value is 8.94 ± 0.45.

Q: For “AAATAATGGTTAGCTACACACAAAGCATTTTTTGAA [CACACA_site1016]”, which “gcPBM binding intensity (ln)” value is on record?
A: Its value is 8.93 ± 0.48.

Q: How did the “gcPBM binding intensity (ln)” value turn out when “ATAATATAACAATACGCACACGTATACAAAAAAAAA [CACACA_site5703]” was run?
A: The value was 9.11 ± 0.44.

Q: Which “gcPBM binding intensity (ln)” value does the source give for “TTTTAAAAAGATCATTAAAAAAAAAAAAAGAACAAA [CACACA_negctrl_site528]” here?
A: The value was 8.23 ± 0.52.

Q: “AATAATAAAGATCAATGTACATAATAAAAAAAAAAA [XGTACX_site2692]” was tested. Which “gcPBM binding intensity (ln)” value did it give?
A: Its value is 8.84 ± 0.5.

Q: How did the “gcPBM binding intensity (ln)” value turn out when “TATCATGGGTGTATTTCACACACGGATAATCATTTA [CACACA_site8211]” was run?
A: Its value is 9.06 ± 0.4.

Q: “AATGTTTATTAACATTGTACTTATAATATGTCACAA [XGTACX_site2974]” was tested. Which “gcPBM binding intensity (ln)” value did it give?
A: Its value is 8.62 ± 0.41.

Q: With “AAACAACATATATTAATATGTACATATATATAGATA [GTGCAC_negctrl_site229]” as the sequence, how does the “gcPBM binding intensity (ln)” value read?
A: The value was 8.94 ± 0.43.

Q: With “AATAATTGTTAAAGCTGTACAATACTTATATAAGAA [XGTACX_site5729]” as the sequence, how does the “gcPBM binding intensity (ln)” value read?
A: Its value is 8.77 ± 0.45.
